Test results as given in the supplement of paper PMC10724272.
MIC of invasive clinical C. tropicalis isolates, CLSI broth microdilution (fluconazole 0.12-256 mg/L, up to 1,024 for the azole-resistant cluster and its neighbour group; other ranges not stated); higher = less susceptible. Call: susceptible or wild type [S] / resistant or non-wild type [R] by CLSI breakpoints or cut-offs; intermediate and dose-dependent carry no call. '<=' and '>=' at the end values are inferred; the source marks only some of them. Isolates are numbered anew.

Tests used:
Experiment in all cases: CLSI broth microdilution.
[1] = compound: CCC(C)n1ncn(-c2ccc(N3CCN(c4ccc(OCC5COC(Cn6cncn6)(c6ccc(Cl)cc6Cl)O5)cc4)CC3)cc2)c1=O [itraconazole]
[2] = compound: CCCCCOc1ccc(-c2cc(-c3ccc(C(=O)N[C@H]4C[C@@H](O)[C@@H](O)NC(=O)[C@@H]5[C@@H](O)[C@@H](C)CN5C(=O)[C@H]([C@H](O)CC(N)=O)NC(=O)[C@H]([C@H](O)[C@@H](O)c5ccc(O)c(OS(=O)(=O)O)c5)NC(=O)[C@@H]5C[C@@H](O)CN5C(=O)[C@H]([C@@H](C)O)NC4=O)cc3)no2)cc1 [micafungin]
[3] = compound: CCCCCOc1ccc(-c2ccc(-c3ccc(C(=O)N[C@H]4C[C@@H](O)[C@@H](O)NC(=O)[C@@H]5[C@@H](O)[C@@H](C)CN5C(=O)[C@H]([C@@H](C)O)NC(=O)[C@H]([C@H](O)[C@@H](O)c5ccc(O)cc5)NC(=O)[C@@H]5C[C@@H](O)CN5C(=O)[C@H]([C@@H](C)O)NC4=O)cc3)cc2)cc1 [anidulafungin]
[4] = compound: CC[C@@H]([C@H](C)O)n1ncn(-c2ccc(N3CCN(c4ccc(OC[C@@H]5CO[C@@](Cn6cncn6)(c6ccc(F)cc6F)C5)cc4)CC3)cc2)c1=O [posaconazole]
[5] = compound: CC[C@H](C)C[C@H](C)CCCCCCCCC(=O)N[C@H]1C[C@@H](O)[C@@H](NCCN)NC(=O)[C@@H]2[C@@H](O)CCN2C(=O)[C@H]([C@H](O)CCN)NC(=O)[C@H]([C@H](O)[C@@H](O)c2ccc(O)cc2)NC(=O)[C@@H]2C[C@@H](O)CN2C(=O)[C@H]([C@@H](C)O)NC1=O [caspofungin]
[6] = compound: C[C@@H](c1ncncc1F)[C@](O)(Cn1cncn1)c1ccc(F)cc1F [voriconazole]
[7] = compound: C[C@@H]1[C@H](O)[C@@H](C)/C=C/C=C/C=C/C=C/C=C/C=C/C=C/[C@H](O[C@@H]2O[C@H](C)[C@@H](O)[C@H](N)[C@@H]2O)C[C@@H]2O[C@](O)(C[C@@H](O)C[C@@H](O)[C@H](O)CC[C@@H](O)C[C@@H](O)CC(=O)O[C@H]1C)C[C@H](O)[C@H]2C(=O)O [amphotericin B]
[8] = compound: Nc1[nH]c(=O)ncc1F [flucytosine]
[9] = compound: OC(Cn1cncn1)(Cn1cncn1)c1ccc(F)cc1F [fluconazole]

Candida tropicalis isolate 402 (ERG11 copies: 2, Erg11p: no key change)
MIC [1]: 0.12 mg/L [S] | MIC [2]: 0.06 mg/L [S] | MIC [3]: 0.12 mg/L [S] | MIC [4]: 0.12 mg/L [S] | MIC [5]: 0.06 mg/L [S] | MIC [6]: 0.06 mg/L [S] | MIC [7]: 1 mg/L [S] | MIC [8]: ≤ 0.06 mg/L [S] | MIC [9]: 1 mg/L [S]

Candida tropicalis isolate 403 (ERG11 copies: 2, Erg11p: no key change)
MIC [1]: 0.12 mg/L [S] | MIC [2]: 0.03 mg/L [S] | MIC [3]: 0.06 mg/L [S] | MIC [4]: 0.12 mg/L [S] | MIC [5]: 0.06 mg/L [S] | MIC [6]: 0.06 mg/L [S] | MIC [7]: 1 mg/L [S] | MIC [8]: ≤ 0.06 mg/L [S] | MIC [9]: 1 mg/L [S]

Candida tropicalis isolate 404 (ERG11 copies: 2, Erg11p: no key change)
MIC [1]: 0.25 mg/L [S] | MIC [2]: 0.03 mg/L [S] | MIC [3]: 0.25 mg/L [S] | MIC [4]: 0.25 mg/L [S] | MIC [5]: 0.12 mg/L [S] | MIC [6]: 0.25 µg/mL | MIC [7]: 1 mg/L [S] | MIC [8]: 0.12 mg/L [S] | MIC [9]: 2 mg/L [S]

Candida tropicalis isolate 405 (ERG11 copies: 2, Erg11p: Y132F, S154F (homozygous))
MIC [1]: 0.25 mg/L [S] | MIC [2]: 0.03 mg/L [S] | MIC [3]: 0.03 mg/L [S] | MIC [4]: 0.25 mg/L [S] | MIC [5]: 0.06 mg/L [S] | MIC [6]: 2 mg/L [R] | MIC [7]: 0.25 mg/L [S] | MIC [8]: ≤ 0.06 mg/L [S] | MIC [9]: 64 mg/L [R]

Candida tropicalis isolate 406 (ERG11 copies: 2, Erg11p: no key change)
MIC [1]: 0.12 mg/L [S] | MIC [2]: 0.03 mg/L [S] | MIC [3]: 0.12 mg/L [S] | MIC [4]: 0.12 mg/L [S] | MIC [5]: 0.06 mg/L [S] | MIC [6]: 0.12 mg/L [S] | MIC [7]: 1 mg/L [S] | MIC [8]: ≤ 0.06 mg/L [S] | MIC [9]: 1 mg/L [S]

Candida tropicalis isolate 407 (ERG11 copies: 2, Erg11p: no key change)
MIC [1]: 0.5 mg/L [S] | MIC [2]: 0.03 mg/L [S] | MIC [3]: 0.03 mg/L [S] | MIC [4]: 0.5 mg/L [R] | MIC [5]: 0.03 mg/L [S] | MIC [6]: 0.5 µg/mL | MIC [7]: 2 mg/L [S] | MIC [8]: ≤ 0.06 mg/L [S] | MIC [9]: 2 mg/L [S]

Candida tropicalis isolate 408 (ERG11 copies: 2, Erg11p: no key change)
MIC [1]: 0.5 mg/L [S] | MIC [2]: 0.03 mg/L [S] | MIC [3]: ≤ 0.015 mg/L [S] | MIC [4]: 0.5 mg/L [R] | MIC [5]: 0.03 mg/L [S] | MIC [6]: 0.5 µg/mL | MIC [7]: 1 mg/L [S] | MIC [8]: ≤ 0.06 mg/L [S] | MIC [9]: 8 mg/L [R]

Candida tropicalis isolate 409 (ERG11 copies: 2, Erg11p: Y132F, S154F (homozygous))
MIC [1]: 0.5 mg/L [S] | MIC [2]: 0.03 mg/L [S] | MIC [3]: ≤ 0.015 mg/L [S] | MIC [4]: 0.5 mg/L [R] | MIC [5]: 0.03 mg/L [S] | MIC [6]: 4 mg/L [R] | MIC [7]: 0.25 mg/L [S] | MIC [8]: ≤ 0.06 mg/L [S] | MIC [9]: 128 mg/L [R]

Candida tropicalis isolate 410 (ERG11 copies: 8, Erg11p: Y132F, S154F (heterozygous))
MIC [1]: 0.5 mg/L [S] | MIC [2]: 0.03 mg/L [S] | MIC [3]: 0.25 mg/L [S] | MIC [4]: 1 mg/L [R] | MIC [5]: 0.12 mg/L [S] | MIC [6]: ≥ 8 mg/L [R] | MIC [7]: 0.5 mg/L [S] | MIC [8]: ≤ 0.06 mg/L [S] | MIC [9]: 512 mg/L [R]

Candida tropicalis isolate 411 (ERG11 copies: 2, Erg11p: no key change)
MIC [1]: 0.25 mg/L [S] | MIC [2]: 0.03 mg/L [S] | MIC [3]: 0.03 mg/L [S] | MIC [4]: 0.25 mg/L [S] | MIC [5]: 0.03 mg/L [S] | MIC [6]: 0.25 µg/mL | MIC [7]: 0.5 mg/L [S] | MIC [8]: ≤ 0.06 mg/L [S] | MIC [9]: 4 µg/mL

Candida tropicalis isolate 412 (ERG11 copies: 2, Erg11p: no key change)
MIC [1]: 0.06 mg/L [S] | MIC [2]: 0.015 mg/L [S] | MIC [3]: 0.06 mg/L [S] | MIC [4]: 0.03 mg/L [S] | MIC [5]: 0.03 mg/L [S] | MIC [6]: 0.015 mg/L [S] | MIC [7]: 0.5 mg/L [S] | MIC [8]: 0.12 mg/L [S] | MIC [9]: 0.5 mg/L [S]

Candida tropicalis isolate 413 (ERG11 copies: 8, Erg11p: Y132F, S154F (heterozygous))
MIC [1]: 1 mg/L [R] | MIC [2]: 0.03 mg/L [S] | MIC [3]: 0.25 mg/L [S] | MIC [4]: 1 mg/L [R] | MIC [5]: 0.03 mg/L [S] | MIC [6]: ≥ 8 mg/L [R] | MIC [7]: 1 mg/L [S] | MIC [8]: ≤ 0.06 mg/L [S] | MIC [9]: 512 mg/L [R]

Candida tropicalis isolate 414 (ERG11 copies: 2, Erg11p: no key change)
MIC [1]: 0.25 mg/L [S] | MIC [2]: 0.03 mg/L [S] | MIC [3]: ≤ 0.015 mg/L [S] | MIC [4]: 0.12 mg/L [S] | MIC [5]: 0.03 mg/L [S] | MIC [6]: 0.03 mg/L [S] | MIC [7]: 1 mg/L [S] | MIC [8]: ≤ 0.06 mg/L [S] | MIC [9]: 1 mg/L [S]

Candida tropicalis isolate 415 (ERG11 copies: 2, Erg11p: no key change)
MIC [1]: 0.5 mg/L [S] | MIC [2]: 0.03 mg/L [S] | MIC [3]: 0.03 mg/L [S] | MIC [4]: 0.5 mg/L [R] | MIC [5]: 0.03 mg/L [S] | MIC [6]: 0.5 µg/mL | MIC [7]: 1 mg/L [S] | MIC [8]: ≤ 0.06 mg/L [S] | MIC [9]: 2 mg/L [S]

Candida tropicalis isolate 416 (ERG11 copies: 2, Erg11p: no key change)
MIC [1]: 0.12 mg/L [S] | MIC [2]: 0.06 mg/L [S] | MIC [3]: 0.12 mg/L [S] | MIC [4]: 0.25 mg/L [S] | MIC [5]: 0.06 mg/L [S] | MIC [6]: 0.12 mg/L [S] | MIC [7]: 0.5 mg/L [S] | MIC [8]: ≤ 0.06 mg/L [S] | MIC [9]: 2 mg/L [S]

Candida tropicalis isolate 417 (ERG11 copies: 8, Erg11p: Y132F, S154F, P397S (heterozygous))
MIC [1]: 1 mg/L [R] | MIC [2]: 0.03 mg/L [S] | MIC [3]: 0.12 mg/L [S] | MIC [4]: 2 mg/L [R] | MIC [5]: 0.06 mg/L [S] | MIC [6]: ≥ 8 mg/L [R] | MIC [7]: 2 mg/L [S] | MIC [8]: ≤ 0.06 mg/L [S] | MIC [9]: 512 mg/L [R]
